Out of some 310,000 compounds screened, about 2,200 (0.71%) showed an effect of 50% or more. The effect is printed as a negative number. Some of the results follow.

For the assay, the target named is human ether-à-go-go-related gene (hERG) potassium channel (human, UniProt Q12809). The experiment in a line: primary screen, population patch clamp on CHO cells stably expressing hERG.
Sequence of human ether-à-go-go-related gene (hERG) potassium channel (Q12809 whole entry, looked up): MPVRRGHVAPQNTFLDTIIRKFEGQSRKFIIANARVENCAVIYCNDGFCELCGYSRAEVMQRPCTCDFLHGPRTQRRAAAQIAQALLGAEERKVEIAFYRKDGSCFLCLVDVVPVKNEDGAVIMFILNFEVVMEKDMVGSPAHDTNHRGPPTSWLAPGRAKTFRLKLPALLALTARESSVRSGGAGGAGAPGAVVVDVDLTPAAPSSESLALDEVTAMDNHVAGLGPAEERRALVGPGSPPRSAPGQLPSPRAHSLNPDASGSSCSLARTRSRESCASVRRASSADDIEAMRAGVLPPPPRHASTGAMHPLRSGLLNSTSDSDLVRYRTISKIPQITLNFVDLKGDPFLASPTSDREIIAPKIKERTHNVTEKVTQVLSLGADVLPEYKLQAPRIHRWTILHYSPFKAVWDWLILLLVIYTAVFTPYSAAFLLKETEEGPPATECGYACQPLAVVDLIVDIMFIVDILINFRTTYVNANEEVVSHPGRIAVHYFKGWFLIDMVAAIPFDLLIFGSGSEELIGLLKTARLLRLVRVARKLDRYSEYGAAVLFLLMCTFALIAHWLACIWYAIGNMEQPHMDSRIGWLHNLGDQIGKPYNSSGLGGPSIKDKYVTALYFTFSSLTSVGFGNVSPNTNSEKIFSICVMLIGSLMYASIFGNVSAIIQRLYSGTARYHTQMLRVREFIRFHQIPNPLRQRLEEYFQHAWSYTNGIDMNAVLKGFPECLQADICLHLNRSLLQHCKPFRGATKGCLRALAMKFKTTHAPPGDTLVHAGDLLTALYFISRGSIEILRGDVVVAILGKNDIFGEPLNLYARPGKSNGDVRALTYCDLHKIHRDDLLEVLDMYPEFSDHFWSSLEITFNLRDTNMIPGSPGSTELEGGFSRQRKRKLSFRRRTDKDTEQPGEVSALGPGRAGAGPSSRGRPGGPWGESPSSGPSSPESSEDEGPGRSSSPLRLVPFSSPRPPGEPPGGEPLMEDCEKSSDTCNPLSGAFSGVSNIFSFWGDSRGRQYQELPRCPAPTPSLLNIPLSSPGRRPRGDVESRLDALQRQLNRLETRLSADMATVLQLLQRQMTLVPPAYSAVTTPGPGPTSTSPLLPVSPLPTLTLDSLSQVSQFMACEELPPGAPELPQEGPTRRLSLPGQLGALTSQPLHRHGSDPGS
Regarding `CC[N+](CC)(CC)CCOc1cccc(OCC[N+](CC)(CC)CC)c1OCC[N+](CC)(CC)CC.[I-]`, the “hERG current change (%, negative = inhibition) at 1uM” value came to 17.6%.
On to `CCC(=O)Nc1cccc(NC(=S)NC(=O)c2ccc(Cl)cc2)c1`, for which the “hERG current change (%, negative = inhibition) at 1uM” value is 10.7%.
Consider `Cc1c(C(=O)N2CCCC2)sc(NC(=O)c2cccs2)c1C#N`, for which the “hERG current change (%, negative = inhibition) at 1uM” value was 11.5%.
For `O=C(Nc1nc(-c2ccc3ccccc3c2)cs1)c1ccc(N2C(=O)CCC2=O)cc1`, the “hERG current change (%, negative = inhibition) at 1uM” value is 12.2%.
For `Cc1cc(C(=O)NC2=NCCS2)cs1`, the “hERG current change (%, negative = inhibition) at 1uM” value is -13%.
For `O=C1CCC[C@@H]2Cc3[nH]c4c(Cl)ccc(Cl)c4c3[C@@H]3CCN1[C@H]23`, the “hERG current change (%, negative = inhibition) at 1uM” value is recorded as 3.72%.
`O=C(NNC1=NCCN1Cc1ccccc1)c1cccc(C(F)(F)F)c1`: the “hERG current change (%, negative = inhibition) at 1uM” value is listed as 1.8%.
As to `Cc1cc(NC(=O)CCC(=O)N(Cc2cccs2)C(C)(C)C(=O)NC2CCCCC2)no1`, the “hERG current change (%, negative = inhibition) at 1uM” value was found to be 13.6%.
`Cc1nc2oc3c(=O)[nH]cnc3c2c2c1COC(C)(C)C2`: the “hERG current change (%, negative = inhibition) at 1uM” value is 7.83%.
As for `Nc1nc(Cl)nc2ccc(Br)cc12`, the “hERG current change (%, negative = inhibition) at 1uM” value was 11.5%.
For `CCOC(=O)Cn1cnc2c(cnn2-c2ccc(OC)cc2)c1=O`, the “hERG current change (%, negative = inhibition) at 1uM” value was 17.1%.
On to `CCc1ccc(-c2csc3[n+]2CCN3C(C)=O)cc1.[Br-]`, for which the “hERG current change (%, negative = inhibition) at 1uM” value is -2.61%.
Consider `CC1CCC(NC(=O)COc2ccccc2C(N)=O)CC1` (stereo not drawn), for which the “hERG current change (%, negative = inhibition) at 1uM” value came to 8.88%.
Under `FC(F)(F)c1cccc(-c2nnc(-c3ccccc3)c(N3CCOCC3)n2)c1` stands -11.9%; under `Cc1ccc(S(=O)(=O)n2nc(C)c(Br)c2C)c(C)c1C`, 13.4%; under `Cc1cccc(NC(=O)CSc2nccn2C)c1`, 10.9%.
Regarding `COc1ccc(-c2nc3c([nH]2)c(=O)n(C)c(=O)n3C)c(OC)c1`, the “hERG current change (%, negative = inhibition) at 1uM” value was 7.91%.
The result for `CC(NC(=O)Nc1ccc([N+](=O)[O-])cc1)C(c1cccs1)N1CCCC1` (stereo not drawn) reads -34.8%.
Turning to `CCN(CC)S(=O)(=O)c1cc(OCC(N)=O)c(C)cc1Cl`, the “hERG current change (%, negative = inhibition) at 1uM” value amounted to 4.73%.
As to `O=S(=O)(NC1CCCCCCC1)c1ccccc1`, the “hERG current change (%, negative = inhibition) at 1uM” value is given as 7.9%.
With `O=C(NC1CCCC1)C(c1ccncc1)N(C(=O)c1ccco1)c1ccccc1` (stereo not drawn), the “hERG current change (%, negative = inhibition) at 1uM” value was 2.13%.
For `CCOc1ccc(C2N(c3cc(Cl)ccc3OC)C(=O)C3CCCN32)cc1OC` (stereo not drawn), the “hERG current change (%, negative = inhibition) at 1uM” value was 3.61%.
Take `C=CCn1c(CNC(=O)c2ccccc2F)nnc1SCC(=O)N1CCOCC1`: the “hERG current change (%, negative = inhibition) at 1uM” value is reported as -6.65%.
On to `Cc1csc(NC(=O)c2cncc(Br)c2)n1`, for which the “hERG current change (%, negative = inhibition) at 1uM” value is recorded as 4.03%.
For `CCOc1cccc(CN2CCN(CCc3ccccc3)C(CCO)C2)c1O` (stereo not drawn), the “hERG current change (%, negative = inhibition) at 1uM” value is recorded as -20.1%.
Regarding `CCN(CC)c1ccc(/C=N/NC(=O)c2ccc([N+](=O)[O-])cc2)cc1`, the “hERG current change (%, negative = inhibition) at 1uM” value came out at 16.9%.
The result for `Cc1onc(-c2ccccc2)c1C(=O)Nc1cccc(S(=O)(=O)NC2=NCCC2)c1` reads 10.7%; that for `CC12CCC(=O)N1C(C(=O)Nc1nnc(SCc3ccc(F)cc3)s1)CS2` (stereo not drawn), 10.1%.
As for `CC(C)[C@H](NC(=O)c1ccco1)C(=O)Nc1ccc(OC(F)F)cc1`, the “hERG current change (%, negative = inhibition) at 1uM” value was 3.79%.
Consider `CC(C)(C)C(=O)C1=C(O)C(=O)N(c2ccccc2)C1c1ccccc1` (stereo not drawn), for which the “hERG current change (%, negative = inhibition) at 1uM” value is recorded as 13%.
Regarding `CCOc1ccc(NS(=O)(=O)c2ccc3[nH]cc(C(=O)NCC4CCCO4)c(=O)c3c2)cc1` (stereo not drawn), the “hERG current change (%, negative = inhibition) at 1uM” value is 12.6%.
`Cc1cc(-c2csc(NC(=O)c3ccc(=O)n(C)n3)n2)c(C)n1CC1CCCO1` (stereo not drawn): the “hERG current change (%, negative = inhibition) at 1uM” value came out at 12.9%.
With `O=C(Nc1ccc(Cl)cc1)NC1CCCc2ccccc21` (stereo not drawn), the “hERG current change (%, negative = inhibition) at 1uM” value was 4.7%.
Turning to `O=C(NCCc1c[nH]c2ccccc12)c1c(Cl)nc2sccn12`, the “hERG current change (%, negative = inhibition) at 1uM” value was found to be 8.51%.
Take `Cc1noc(NS(=O)(=O)c2ccc(NC(=O)CCn3c(=O)oc4ccccc43)cc2)c1C`: the “hERG current change (%, negative = inhibition) at 1uM” value is listed as 2.45%.
The result for `CN1CCN(C(=O)CN(c2cccc(Br)c2)S(=O)(=O)c2ccccc2)CC1` reads 6.15%.
As to `COc1ccc(C2(C(=O)c3ccccc3)C(=O)c3ccccc3C2=O)cc1`, the “hERG current change (%, negative = inhibition) at 1uM” value came out at 13.4%.
For `COCCCNCCCCSc1ccc(Cl)cc1`, the “hERG current change (%, negative = inhibition) at 1uM” value is -4.64%.
For the compound `CCN(CC)CCn1c(/N=C/c2cc(Br)ccc2O)nc2ccccc21`, the “hERG current change (%, negative = inhibition) at 1uM” value was -2.13%.
For `CC(=O)N1C(C)(C)CC(=NOC(=O)c2ccc(C)cc2)CC1(C)C`, the “hERG current change (%, negative = inhibition) at 1uM” value is 7.05%.
As for `Cc1ccc(CN2CCN(c3ccccn3)CC2)s1.O=C(O)C(=O)O`, the “hERG current change (%, negative = inhibition) at 1uM” value is on record as -7.24%.
The result for `CC(=O)c1ccc(Nc2nc(N3CCOCC3)nc(N3CCOCC3)n2)cc1` reads 3.41%; that for `O=C(COC(=O)/C=C/c1cccc(Cl)c1Cl)Nc1ccc2[nH]c(=O)[nH]c2c1`, 16.7%.
On to `Cc1nnc(SCC(=O)Nc2ccc(N3CCOCC3)cc2)o1`, for which the “hERG current change (%, negative = inhibition) at 1uM” value is given as 11.1%.
With `CCC(C)(C)n1nnnc1C(c1ccc(C)cc1)N1CCN(C(=O)c2ccco2)CC1` (stereo not drawn), the “hERG current change (%, negative = inhibition) at 1uM” value is -0.134%.
Under `Cc1ccc(Sc2nc3c(c(=O)[nH]c(=O)n3C)n2CCc2ccccc2)cc1` stands 12.8%.
Under `CC(=O)Nc1nc(-c2ccc(Cl)cc2)ns1` stands 0.391%; under `N#Cc1ccc(C(=O)Nc2nc(-c3cccs3)c(C(=O)C(F)(F)F)s2)cc1`, -18.6%; under `CC1(C)C(c2ccccc2)=NC(c2cccnc2)N1O` (stereo not drawn), 8.67%.
`Cc1ccc(Cl)cc1N1CCN(C(=O)CNC(=O)c2ccc(Br)o2)CC1`: the “hERG current change (%, negative = inhibition) at 1uM” value amounted to 4.64%.
Regarding `CC(C(=O)N1CCCC1)N1CCN(c2ccccc2O)CC1` (stereo not drawn), the “hERG current change (%, negative = inhibition) at 1uM” value is listed as 14.2%.
As to `O=C(Nc1ccccc1Cl)N1CCN(c2ccc3nnc(-c4ccccc4)n3n2)CC1`, the “hERG current change (%, negative = inhibition) at 1uM” value was -23.8%.
With `CCC1C(c2ccccc2)NC(c2ccccc2)CC1(O)c1ccc(F)cc1.Cl` (stereo not drawn), the “hERG current change (%, negative = inhibition) at 1uM” value was 15.5%.
With `COC(=O)CSc1nnc(CNS(=O)(=O)c2ccc(Br)cc2)n1C`, the “hERG current change (%, negative = inhibition) at 1uM” value is 12.1%.
`CCN1CCN(Cc2ccc(NC(=O)c3cc(NC(=O)c4nccnc4N)cc(OC)c3)cc2C(F)(F)F)CC1`: the “hERG current change (%, negative = inhibition) at 1uM” value stood at 16.7%.
Turning to `Cc1ccc(Nc2ccccc2)cc1`, the “hERG current change (%, negative = inhibition) at 1uM” value was 13%.
Turning to `COc1cc(OC)cc(C(=O)Nc2cccc(NC(=O)c3ccccc3)c2)c1`, the “hERG current change (%, negative = inhibition) at 1uM” value was -9.38%.

For the origin of these results see PMC4336329 (PLoS ONE, 2015).
